According to the supplement of paper PMC11417369:
± gives the standard deviation of the averaged measurements. The list shows a part of the results.

Tested on: PfAP2-I AP2 domain 3 (GST-tagged)
Assay: gcPBM binding intensity (ln(normalized median fluorescence intensity)); higher = stronger DNA binding
Outline: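 After 1 h on an Agilent 4 × 180k array of primer-extended double-stranded 36-bp intergenic genomic probes and negative controls, bound GST-tagged P. falciparum DNA-binding domains were detected with Alexa488 anti-GST antibody and scanned at 488 nm. The domains had been expressed in E. coli, and binding took place in 1× PBS with 1% milk, 0.2 mg/ml BSA, 0.5% salmon testes DNA and 0.03% Triton X-100. Binding intensity is the highest Masliner-normalised natural-log median intensity across replicate spots of either probe orientation.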

Sequence	gcPBM binding intensity (ln)
CACGAAAAAAAAAAATGTACATAAAAATATGATACA [XGTACX_site2536]	7.54 ± 0.3
AAAAAAAAAAAAAAAAAAAAAGGACGGATGGATGGA [GTGCAC_negctrl_site527]	9.53 ± 0.23
TCTCATTTCAACAACAGTACATATCTATCTGTGTAT [XGTACX_site6897]	7.66 ± 0.7
GAAAGAGAAATATATACACACATATTTATATTTTTA [CACACA_site2066]	7.58 ± 0.45
AAATTATAAGTAAAAAGTACTTAATATATAATAAAC [XGTACX_site6065]	7.91 ± 0.45
CTTATACTTCTACATCGTACAAAAGATGGTATAATT [XGTACX_site2698]	7.64 ± 0.52
AAAAAAAAAAAAAATAGTACGTAACTATAATTTCCT [XGTACX_site2457]	8.09 ± 0.49
TATAATTTTTTTTGGGTGCTTGGGTAAATTTTATTA	8.34 ± 0.42
TAACTTAAATAATACATACACACATGTACATACAGA [CACACA_site1594]	7.71 ± 0.36
AATTATATATTATCATGTACAAATATAGTAATACAA [XGTACX_site6845]	7.64 ± 0.48
AAATTTATATAAAACAGTACAATTAAAAAAAAAATA [XGTACX_site8015]	7.67 ± 0.5
GAAACGTTTTTGAGTAGTACACACACAATAAGGATG [XGTACX_site6809]	8.3 ± 0.43
ATATAAATATAAACATGTACATATATATATATATAT [XGTACX_site2824]	9.36 ± 0.26
ATTTTTTTATAAAATTTTTTATATATTAAATATTAT [CACACA_negctrl_site135]	7.38 ± 0.6
ACGTTTTATTTTTATTGTACTCACATTGAAATGAAT [XGTACX_site6094]	8.25 ± 0.37
TTTGTAATAACATATGCATGTTCAAAAAATAAAATA [TGCATGCA_site817]	7.6 ± 0.65
ATATATTTATACATTTGTACATATACATATTTCTGA [XGTACX_site3982]	7.78 ± 0.57
AAAATTGTGCTTTCACGGACACAAGATCGAAATAGA [XGTACX_site4068]	8.62 ± 0.16
AAAAATATAAACTGCACACACAAAAAAAAAAGAGAA [CACACA_site1367]	8.74 ± 0.13
ACATTAATATAAAGCACACATATATATAATATATAT [CACACA_site508]	9.89 ± 0.47
ATTGATTTTTAATATACACACATAAGTACCACAAAA [CACACA_site339]	8.46 ± 0.2
TATAACATATTTATATATGACATTATCTATTCATTT [CACACA_negctrl_site864]	7.21 ± 0.53
CATGATATATAAATATGTACATATATATATATATAT [XGTACX_site1760]	9.47 ± 0.49
TAATAATAATATAAAATACACACCTATTATTTTTAC [CACACA_site4003]	7.74 ± 0.35
CAATATTATTATATTTGTACACATGCGTATTTTTTA [XGTACX_site4154]	7.74 ± 0.47
